In PubChem BioAssay (NCI):
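Results reflect a 48-hour exposure of cells in 96-well plates to compound at five concentrations. Here, GI50 denotes the concentration required for 50% inhibition of growth. TGI marks complete inhibition of growth.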

System: NCI-H322M lung
Experiment: inhibition of tumour cell growth, NCI panel, 48 h

Q: With `CCCCNNC(=O)c1ccc(-c2cccc(F)c2F)cc1` as the molecule, how does the GI50 read?
A: 2.77 µM

Q: What about the TGI of the same molecule?
A: 84.1 µM
